Test results as given in the supplement of paper PMC4466236.
Whole data set: some 33,000 sequences, median “E-score (dimensionless, -0.5 to 0.5)” near -0.058, cut for the highest 2% near 0.35. Some of the results follow.

These sequences were tested on MvaT (assay: PBM 8-mer E-score (mean of HK and ME arrays) (E-score (dimensionless, -0.5 to 0.5)); higher = stronger relative binding preference; most listed sequences are background and not binding sites).
How it was run: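 Full-length P. aeruginosa MvaT carrying an N-terminal glutathione S-transferase tag was tested by protein binding microarray following a previously described protocol. Two universal double-stranded 60-mer arrays, ME and HK, were used, each with a constant 25-mer primer region and a variable 35-mer region covering all 8-mers. The rank-based E-score is the mean of the two arrays, parsed with a custom script. Its range runs from -0.5 to 0.5 for each 8-mer.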

Sequence	PBM 8-mer E-score
AGTATTAA	0.328
CAACTGAA	-0.0474
ATGGGGCA	-0.082
GGAGATCA	-0.201
ACCCAGGC	-0.124
CCGCCGAA	-0.202
CGCGGGAA	-0.0121
GTGAGTTA	0.183
AGTGATGA	0.0836
CGATATCC	-0.116
AATGAGCG	-0.154
GCTTAAAA	0.242
CATTTCCA	0.146
ATACTGCC	0.0135
AATTGGTG	0.0491
GCGTCCAC	-0.233
ACGGCGTC	-0.362
CGTATAAC	0.113
GTCAGGAA	0.000934
CAGTGTCC	-0.176
CCACCTTA	0.0795
ATAGCTTG	0.0257

Sequence	PBM 8-mer E-score
ACGCTGAT	0.00581
AACCGGCT	-0.148
GTAAAATA	0.345
TCGAAAGA	0.00721
CCCAATGA	-0.117
AAGGTGCT	-0.249
CTAAGCAC	-0.0271
GACTAGGC	-0.202
ACGCGTAG	-0.103
CATCACGG	-0.174
CTCCATCC	-0.207
GGTATGGA	-0.235
AACAACCA	-0.0408
AACTGACC	-0.0356
CGATGTAA	0.0178
GGATCTAC	-0.223
ATACAAGA	0.18
AATGCGAC	-0.0226
CACGGGAC	-0.284
GCCCAAGC	-0.3
AAAACTTG	0.1
GCAGCCGC	-0.189

Sequence	PBM 8-mer E-score
CTAAATTA	0.336
AGTAGCGC	-0.0583
GCTTGGAC	-0.25
GGTCGCCA	-0.174
TAGAATCA	0.0466
ACTAGTGA	0.0222
ATTAACCC	0.18
CCATCCTA	-0.256
CGGGCCAC	-0.225
CCCATGTC	-0.158
CTCCCTTA	-0.0814
AAACTCTG	0.0986
CGGGCACC	-0.301
AAAAGTTC	0.277
ATTTTCTA	0.255
GGTACCAA	-0.0846
ATGACCGA	-0.0443
CTACCCGA	-0.0766
AGAGGCGG	-0.277
TAGTGAAA	0.125
CGTACTAG	-0.108
GGACCTTA	-0.19

Sequence	PBM 8-mer E-score
CCCTAGGC	-0.156
AACTGATA	0.267
CTGCAACC	-0.105
CATTTGAA	0.125
CTCTCCGC	-0.188
GTACTTTA	0.342
CCCAGCCG	-0.12
CACTGTCC	-0.0749
GCCGAGCC	-0.217
ACACTCGA	-0.0421
GTTAGTTA	0.302
AATAGATG	0.172
CGTGCTGC	-0.174
AGTGAGAT	-0.00921
AATTGATC	0.241
AGTCCCCG	-0.246
GCCCACTA	-0.131
AGCCTATA	0.179
CCGCTGGC	-0.215
GAAACACC	0.0519
